Screen size: about 44,000 compounds; about 340 (0.77%) were called active. Another 5% or so got no clear call; they are omitted. Calls come from the whole dose curve; as a rule, active = well fitted inhibition curve with a large enough effect; inconclusive = small, poorly fitted or top-dose-only effect; inactive = flat fitted curve, though single readings scatter. This is one part of the list.
Assay: Acumen qHTS Assay for Inhibitors of the mTORC1 Signaling Pathway in MEF (Tsc2-/-, p53-/-) Cells: Sytravon;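 note: plate controls were DMSO for no effect and rapamycin for full effect; nearly all actives have a fitted effect of over 50% in size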
Details: phospho-rpS6 immunofluorescence/PI, 24 h; series mostly up to 38.3 µM; activity change, negative = inhibition: at the top concentration
In short: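 Plate MEFs (Tsc2-/-, p53-/-, empty vector) in DMEM/10% FBS; after 24 h add compound, incubate 24 h at 37 degree Celsius; fix in PFA/TX-100, block, stain phospho-rpS6 and 10 uM PI; scan at 488 nm; report % positive cells.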

Activity change, negative = inhibition, inactive:
Cc1ccc(S(=O)(=O)Cc2nc(-c3ccc(C(=O)NCc4ccccc4)cc3)oc2C)cc1 -3.91%
COc1ccc(OCCn2cc(C(=O)C3CCCCC3)c3ccccc32)cc1 0.18%
O=C(Nc1cccc(Br)c1)N1CCC(CN2CCCCC2)CC1 0.266%
Cc1ccc(NC(=O)CSc2nc3ncccc3[nH]2)cc1F -8.37%
COc1cccc(N2CCN(C(=O)c3cnn(C(C)(C)C)c3C3CCN(C(=O)OC(C)(C)C)CC3)CC2)c1 5.97%
O=C(c1ccc2c(c1)CCN2S(=O)(=O)c1ccccc1)N1CCN(c2ccc(F)cc2)CC1 -10.3%
O=C(NCc1ccc(Cl)cc1)C(=O)Nc1ccc(Br)cc1 5.41%
CCc1cccc(NC(=O)Cn2c(=O)n(Cc3ccccc3)c(=O)c3c2c2cc(OC)ccc2n3C)c1 -4.93%
CCc1ccccc1NC(=O)Cn1c(-c2nonc2N)nc2ccccc21 4.12%
O=C(NCCc1csc(-c2ccc(Cl)cc2)n1)c1cccs1 2.83%
COC(=O)c1c(NC(=O)CCCOc2ccc(C(C)(C)C)cc2)sc2c1CCC(C)C2 (stereo unspecified) -0.895%
COc1ccc(NC(=O)/C(C#N)=C/c2ccc(OCc3cc(=O)n4nc(C)sc4n3)cc2)cc1 -9.71%
CC1CCN(C(=O)CSc2nnc(-c3ccccc3Cl)o2)CC1 -2.47%
CCN(C(=O)Cn1nc(Cc2cccnc2)c2ccccc2c1=O)c1ccccc1F 0.534%
O=S(=O)(Nc1ccc2oc3c(c2c1)CCCC3)c1cc(Cl)ccc1Cl 1.38%
Cc1ccc(S(=O)(=O)NCCc2cn3c(C)csc3n2)cc1 0.8%
Cc1cccc(NC(=O)C2CCN(c3nnc(-n4c(C)ccc4C)s3)CC2)c1C -14.7%
COc1ccc(-c2nnc(C3CCN(C(=O)c4ccccc4F)CC3)o2)cc1 8.71%
Cc1ccc2nc(-c3cc(NC(=O)c4ccc5c(c4)OCCO5)ccc3Cl)oc2c1 -22.6%
COc1ccc(NC(=O)CCNS(=O)(=O)c2cccc3nsnc23)cc1 0.26%
COc1ccc(C2Sc3ccccc3NC3=C2C(=O)c2ccccc23)c(OC)c1OC (stereo unspecified) -4.55%
COc1ccc(-c2onc(C)c2C)cc1S(=O)(=O)N1c2ccccc2CC1C (stereo unspecified) -5.62%
Cc1ccc(N2CC(c3nc4ccccc4n3CCC3CCCCC3)CC2=O)cc1 (stereo unspecified) -0.55%
CCOc1ccc(C(CC(=O)O)N2Cc3ccccc3C2=O)cc1OC (stereo unspecified) -7.92%
COc1ccc(C2c3c(oc4ccc(F)cc4c3=O)C(=O)N2Cc2ccc3c(c2)OCO3)cc1 (stereo unspecified) -2.25%
N#C/C(=C\c1ccccc1)c1nc(-c2cc3cc(Br)ccc3oc2=O)cs1 -2.48%
CCc1ccc(CNCc2c(C(=O)O)n(Cc3cccc(F)c3)c3cc(OC)ccc23)cc1 0.761%
COC(=O)c1ccccc1NC(=O)NCCc1c(C)nn(C)c1C 0%
Cc1cccc(N(C)C(=O)c2cc(S(=O)(=O)N3CCCC3)cn2C)c1 -1.24%
O=C(Nc1ccccc1Br)C1CCCN(S(=O)(=O)c2cccc3nsnc23)C1 (stereo unspecified) -2.33%
COc1cccc(N2CCN(S(=O)(=O)c3ccc4[nH]c5c(c4c3)CCCC5)CC2)c1 -11.2%
O=C1CC(c2ccccc2)Cc2[nH]c(=O)c(C(=O)Nc3cccc(F)c3)cc21 (stereo unspecified) 21.6%
O=C(NCCS(=O)(=O)N1CCN(c2ccccc2)CC1)C(c1ccccc1)c1ccccc1 -0.762%
Cc1cccc(NC(=O)c2c(NC(=O)C(F)(F)F)sc3c2CCCCC3)c1 -12.7%
CCOC(=O)c1cccc(Nc2c3c(nc4ccccc24)CCC3)c1 -27.7%
O=C(CSc1nc2c([nH]c3ccccc32)c(=O)n1-c1ccc(F)cc1)N1CCCCC1 -1.93%
CCc1ccc(OCC(=O)N(Cc2ccc(Cl)cc2)C2CCS(=O)(=O)C2)cc1 (stereo unspecified) -4.24%
Cc1noc(C)c1S(=O)(=O)N1CCC(C(=O)N2CCN(c3ccccc3)CC2)CC1 2.75%
COc1ccccc1NC(=O)Cn1nnc(C(=O)NCc2ccc3c(c2)OCO3)c1N -16.2%
Cn1c(NCCO)nc2c1c(=O)n(Cc1ccccc1Cl)c(=O)n2C 2.76%
CCC(C)NC(=O)Cn1c(=O)cc(-c2ccccc2)c2c(C)nn(C)c21 (stereo unspecified) 0%
COc1ccccc1C(=O)Nc1cc2c(cc1N1CCOCC1)n(C)c(=O)n2C 1.09%
COc1cccc(Oc2nc3c(c(=O)n(Cc4ccccc4F)c(=O)n3C)n2C)c1 3.61%
COc1cc2[nH]c(=O)n(CCCCCC(=O)N3CCN(c4cccc(C(F)(F)F)c4)CC3)c(=O)c2cc1OC -7.96%
Cc1cccc(NS(=O)(=O)c2ccc3oc(=O)c4ncn(C)c4c3c2)c1C -0.515%
COc1cccc(N2CCN(C(=O)c3c(C)oc4ncnc(N5CCOCC5)c34)CC2)c1 4.01%
Cc1c(C(=O)N(C)C)sc2c1c(=O)n(-c1ccc(Cl)c(Cl)c1)c(=O)n2CC(=O)Nc1cccc(C(F)(F)F)c1 -2.39%
CC(C)c1ccc(NC(=O)CN(C)S(=O)(=O)c2ccc3c(c2)c(=O)n(C)c(=O)n3C)cc1 -1.72%
CCn1c(=O)n(CC)c2cc(N3CCCCC3)c(NC(=O)Nc3ccccc3Cl)cc21 -13.3%
CCOC(=O)Cc1ccc(NC(=O)NCc2ccc3c(c2)CCN3C(=O)CC)cc1 -7.16%
O=C(CCS(=O)(=O)c1cc(Br)cc2c1N(C(=O)C1CC1)CC2)Nc1ccc(Br)cc1F -20.5%
CCc1ccccc1N(C)C(=O)Cn1cnc2sc(C)c(S(=O)(=O)N3CCN(c4ncccn4)CC3)c2c1=O 1.74%
COc1ccc(NC(=O)Cn2c(=O)oc3cc(S(=O)(=O)N4CCC(C)CC4)ccc32)c(OC)c1 -4.39%
Cc1ccc(NS(=O)(=O)c2cc(Br)cc3c2N(C(=O)C2CC2)CC3)cc1C -12.5%
CCCS(=O)(=O)c1c(Nc2ccccc2C)sc(C(=O)c2ccccc2)c1N -6.7%
COC(=O)c1ccc(Cn2nnc3sc4c(c3c2=O)CCC(C)C4)cc1 (stereo unspecified) -12.8%
CCOc1ccccc1CNC(=O)CCn1ccc2cc(S(=O)(=O)N3CCC(C)CC3)ccc21 -16.6%
COc1ccc2c(CNCCc3cccs3)c(C(=O)O)n(Cc3ccccc3)c2c1 -1.27%
O=C(CCCN1C(=O)C(c2ccccc2)Oc2cccnc21)Nc1ccc(Br)cc1F (stereo unspecified) -4.48%
O=C(NC1CCCc2ccccc21)c1ccc2c(c1)sc1nc(-c3ccc(F)cc3)cn12 (stereo unspecified) 1.14%
COc1ccc(-c2nc(SCC(=O)NCCc3ccc(OC)c(OC)c3)n[nH]2)cc1 8.18%
CCOc1ccc(CCNC(=O)c2cc3c(=O)[nH]c4ccc(C)cc4c3s2)cc1OCC -9.22%
CC(=O)N(Cc1cccnc1)c1nc2c(C)c(C)ccc2s1 -1.63%
Cc1ccc(Cl)cc1NC(=O)C1CCC(CNS(=O)(=O)c2cccc3nsnc23)CC1 (stereo unspecified) -8.42%
CCc1ccc2c(c1)NC(c1cccs1)=NC(c1ccc(F)cc1)=N2 -0.632%
Cc1ccc(NC(=O)CCC(=O)N2Cc3ccccc3Oc3ncccc32)c(C)c1 1.41%
Cc1ccc(C(C)C)c(OCC(O)CN2CCN(c3ccccc3F)CC2)c1 (stereo unspecified) 3.99%
Cc1cccc(NC(=O)CSc2nc(-c3ccccc3)cc(=O)[nH]2)c1C 3.23%
CCOc1ccc(CCNC(=O)CN2C(=O)COc3ccc(S(=O)(=O)N4CCCC4)cc32)cc1 -12.1%
COc1ccc(-n2nnnc2C2CCN(S(=O)(=O)c3ccc(NC(C)=O)cc3)CC2)cc1 -12.5%
Cc1cccc(-c2nc(C)c(CCNC(=O)C(=O)Nc3ccccc3C#N)s2)c1 -3.84%
COCCCNC(=O)c1ccc(-c2nc(CS(=O)(=O)c3ccc(C)cc3)c(C)o2)cc1 0%
Cc1oc(-c2ccc(C(=O)NCc3cccc(F)c3)cc2)nc1COc1ccccc1 -2.89%
CCOC(=O)c1ccc(N2C(=O)c3n[nH]c(-c4ccco4)c3C2c2cccc(OC)c2)cc1 (stereo unspecified) -16%
COC(=O)c1ccc2c(=O)n(CCCCCC(=O)NCCc3ccc(Cl)cc3)c(=O)[nH]c2c1 0.34%
CCn1c(C(=O)N2CCC(C(=O)NCCc3ccc(C)cc3)CC2)cc2sccc21 -5.38%
Cc1ccc(Cn2ccnc2SCC(=O)NCc2ccccc2Cl)cc1 3.15%
N#Cc1c(C(F)(F)F)cc(-c2ccc(F)cc2)nc1SCC(=O)Nc1ccccc1 -5.37%
Cc1ccccc1NC(=O)CSc1nc2ccccc2c2nc(CCn3cncc3C)nn12 -7.65%
COc1ccc(NC(=O)CCc2c(C)nn(-c3ccc(N4CCCCC4)nn3)c2C)cc1Cl 5.69%
COc1ccccc1C(=O)Nc1cccc(C(=O)OCc2cc(=O)n3ccsc3n2)c1 5.09%
Cc1ccc(CNC(=O)C(C)n2nc(C)n3c(cc4sccc43)c2=O)cc1 (stereo unspecified) -8.72%
CCOC(=O)C1CCCN(C(=O)c2ccc3c(c2)sc2nc(-c4ccc(CC)cc4)cn23)C1 (stereo unspecified) -2.8%
O=C(CCS(=O)(=O)c1ccc(Br)cc1)Nc1ccc(F)cc1F -1.46%
Cc1ccc(-c2nc3ncccn3c2Nc2ccc3c(c2)OCCO3)cc1 -16.1%
CCc1ccc(CNc2ccc3c(c2)ncn3C(C)(C)C)cc1 -9.19%
Cc1cccc(NS(=O)(=O)c2ccc3c(c2)CC(C)N3C(=O)C2CCC2)c1C (stereo unspecified) -20.5%
COc1cccc2c1cc1c(=O)n(CC(=O)N3CCN(c4ccccc4)CC3)nc(C)n12 0.278%
CCOc1ccc(N2CC(c3nc4ccccc4n3CCOc3ccccc3OC)CC2=O)cc1 (stereo unspecified) 0.408%
CCc1nc2ccc(C(=O)NCc3cc(OC)ccc3OC)cc2nc1CC -3.67%
CCOc1ccc(CCNC(=O)CS(=O)(=O)Cc2nc(-c3ccc(OC)cc3)oc2C)cc1 5.41%
COc1ccc(Cn2c(=O)n(Cc3ccco3)c(=O)c3oc4ccccc4c32)cc1 -15.7%
Cc1cccc2sc(N(CCN(C)C)C(=O)c3ccc4c(c3)OCCO4)nc12 -18%
Cc1cc(OC(C)C(=O)Nc2cccc(-c3nc4ccccc4o3)c2)cc(C)c1Cl (stereo unspecified) -2.24%
Cc1ccc(Cn2c(C)c3cnn(CC(=O)NCc4ccccc4)c(=O)c3c2C)cc1 -12.7%
COc1ccc(-c2nc(CSCC(=O)N3CCN(c4cc(Cl)ccc4C)CC3)c(C)o2)cc1 -0.872%

Reference: PubChem BioAssay AID493208 (National Center for Advancing Translational Sciences (NCATS), 2011)
